We go through 1 molecule from patent US20220291215A1 (UNIVERSITY HEALTH NETWORK, published 2022).

This assay has as its target T1, recombinant 10x His-tagged CD4 protein (extracellular domain of human CD4, GS linker, 10x histidine tag) (human, UniProt P01730 part only).
T1 construct: also called recombinant CD4; sCD4 (analyte)
As to the kind of experiment: biolayer interferometry. Background: In BLI a coated tip is dipped into the sample, and binding shifts an interference pattern.

B1: biotinylated recombinant wild-type DR1 (extracellular domains of DRA1*01:01 and wild-type DRB1*01:01 with leucine zippers) (peptide-MHC)
MHC II alpha: not shown
MHC II beta: GDTRPRFLWQLKFECHFFNGTERVRLLERCIYNQEESVRFDSDVGEYRAVTELGRPDAEYWNSQKDLLEQRRAAVDTYCRHNYGVGESFTVQRRVEPKVTVYPSKTQPLQHHNLLVCSVSGFYPGSIEVRWFRNGQEEKAGVVSTGLIQNGDWTFQTLVMLETVPRSGEVYTCQVEHPSVTSPLTVEWRARSESAQSKGGGGSLEIEAAFLERENTALETRVAELRQRVQRLRNRVSQYRTRYGPLGGGKGSGLNDIFEAQKIEWHE
notes: also called biotinylated HLA-DR1 (ligand)
For the molecule B1, the binding result was “no binding (tested: 26 µM)”.
